# Test results published in the supplement of paper PMC8728848.
# This is one part of the list.
# B1: DC-ASGPR-short (Homo sapiens) (protein)
# chain: MTRTYENFQYLENKVKVQGFKNGPLPLQSLLQRLRSGPCHLLLSLGLGLLLLVIICVVGFQNSKFQRDLVTLRTDFSNFTSNTVAEIQALTSQGSSLEETIASLKAEVEGFKQERQAVHSEMLLRVQQLVQDLKKLTCQVATLNNNASTEGTCCPVNWVEHQDSCYWFSHSGMSWAEAEKYCQLKNAHLVVINSREEQNFVQKYLGSAYTWMGLSDPEGAWKWVDGTDYATGFQNWKPGQPDDWQGHGLGGGEDCAHFHPDGRWNDDVCQRPYHWVCEAGLGQTSQESH
# Experiments:
# Experiment in all cases: glycan array binding signal (z-score within array); higher = stronger binding
# Settings in all cases: glycan notation: IUPAC condensed, linker removed
# [1] = biological target: Neu5Ac(a2-6)Gal(b1-4)GlcNAc(b1-3)Gal(b1-4)GlcNAc(b1-3)Gal(b1-4)GlcNAc(b1-2)Man(a1-3)[Neu5Ac(a2-6)Gal(b1-4)GlcNAc(b1-3)Gal(b1-4)GlcNAc(b1-3)Gal(b1-4)GlcNAc(b1-2)Man(a1-6)]GalNAc
# How it was run: (§1)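 The Consortium for Functional Glycomics database supplied 3228 glycan arrays, of which those lacking an available protein sequence were dropped. The binding signal, a within-array Z-score, was averaged across arrays of the same protein sequence and across linkers. Negative scores can be read as non-binding.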
# [2] = biological target: Neu5Ac(a2-6)Gal(b1-4)GlcNAc(b1-3)Gal(b1-4)GlcNAc(b1-3)GalNAc
# How it was run: as §1
# [3] = biological target: Neu5Ac(a2-6)Gal(b1-4)GlcNAc(b1-3)Gal(b1-4)GlcNAc(b1-3)[Neu5Ac(a2-6)Gal(b1-4)GlcNAc(b1-3)Gal(b1-4)GlcNAc(b1-6)]GalNAc
# How it was run: as §1
# [4] = biological target: Neu5Ac(a2-6)Gal(b1-4)GlcNAc(b1-3)Gal(b1-4)GlcNAc(b1-6)[Gal(b1-3)]GalNAc
# How it was run: as §1
# [5] = biological target: Neu5Ac(a2-6)Gal(b1-4)GlcNAc(b1-3)Gal(b1-4)[Fuc(a1-3)]GlcNAc(b1-3)Gal(b1-4)[Fuc(a1-3)]GlcNAc
# How it was run: as §1
# [6] = biological target: Neu5Ac(a2-6)Gal(b1-4)GlcNAc(b1-3)GalNAc
# How it was run: as §1
# [7] = biological target: Neu5Ac(a2-6)Gal(b1-4)GlcNAc(b1-3)[Neu5Ac(a2-6)Gal(b1-4)GlcNAc(b1-6)]GalNAc
# How it was run: as §1
# [8] = biological target: Neu5Ac(a2-6)Gal(b1-4)GlcNAc(b1-6)GalNAc
# How it was run: as §1
# [9] = biological target: Neu5Ac(a2-6)Gal(b1-4)GlcNAc(b1-6)[Gal(b1-3)GlcNAc(b1-3)]Gal(b1-4)Glc
# How it was run: as §1
# [10] = biological target: Neu5Ac(a2-6)Gal(b1-4)GlcNAc(b1-6)[Gal(b1-3)]GalNAc
# How it was run: as §1
# [11] = biological target: Neu5Ac(a2-6)Gal(b1-4)GlcNAc6S
# How it was run: as §1
# Neu5Ac(a2-6)GalNAc = biological target: Neu5Ac(a2-6)GalNAc
# How it was run: as §1
# [12] = biological target: Neu5Ac(a2-6)GalNAc(b1-4)GlcNAc
# How it was run: as §1
# [13] = biological target: Neu5Ac(a2-6)GalNAc(b1-4)GlcNAc6S
# How it was run: as §1
# [14] = biological target: Neu5Ac(a2-6)GlcNAc(b1-4)GlcNAc
# How it was run: as §1
# [15] = biological target: Neu5Ac(a2-6)GlcNAc(b1-4)GlcNAc(b1-4)GlcNAc
# How it was run: as §1
# Neu5Ac(a2-8)Neu5Ac = biological target: Neu5Ac(a2-8)Neu5Ac
# How it was run: as §1
# [16] = biological target: Neu5Ac(a2-8)Neu5Ac(a2-3)Gal(b1-3)GalNAc(b1-4)[Neu5Ac(a2-3)]Gal(b1-4)Glc
# How it was run: as §1
# [17] = biological target: Neu5Ac(a2-8)Neu5Ac(a2-3)Gal(b1-3)GalNAc(b1-4)[Neu5Ac(a2-8)Neu5Ac(a2-3)]Gal(b1-4)Glc
# How it was run: as §1
# [18] = biological target: Neu5Ac(a2-8)Neu5Ac(a2-3)Gal(b1-4)Glc
# How it was run: as §1
# [19] = biological target: Neu5Ac(a2-8)Neu5Ac(a2-3)Gal(b1-4)GlcNAc
# How it was run: as §1
# [20] = biological target: Neu5Ac(a2-8)Neu5Ac(a2-3)[Gal(b1-3)GalNAc(b1-4)]Gal(b1-4)Glc
# How it was run: as §1
# [21] = biological target: Neu5Ac(a2-8)Neu5Ac(a2-3)[GalNAc(b1-4)]Gal(b1-4)Glc
# How it was run: as §1
# [22] = biological target: Neu5Ac(a2-8)Neu5Ac(a2-8)Neu5Ac
# How it was run: as §1
# [23] = biological target: Neu5Ac(a2-8)Neu5Ac(a2-8)Neu5Ac(a2-3)Gal(b1-4)Glc
# How it was run: as §1
# [24] = biological target: Neu5Ac(a2-8)Neu5Ac(a2-8)Neu5Ac(a2-3)[Gal(b1-3)GalNAc(b1-4)]Gal(b1-4)Glc
# How it was run: as §1
# [25] = biological target: Neu5Ac(a2-8)Neu5Ac(a2-8)Neu5Ac(a2-3)[GalNAc(b1-4)]Gal(b1-4)Glc
# How it was run: as §1
# [26] = biological target: Neu5Ac(a2-8)Neu5Ac(a2-8)Neu5Ac(a2-8)Neu5Ac(a2-3)[GalNAc(b1-4)]Gal(b1-4)Glc
# How it was run: as §1
# [27] = biological target: Neu5Ac(a2-8)Neu5Gc(a2-3)Gal(b1-4)GlcNAc
# How it was run: as §1
# [28] = biological target: Neu5Ac(b2-6)Gal(b1-4)GlcNAc
# How it was run: as §1
# Neu5Ac(b2-6)GalNAc = biological target: Neu5Ac(b2-6)GalNAc
# How it was run: as §1
# [29] = biological target: Neu5Ac9Ac(a2-3)Gal(b1-3)GlcNAc
# How it was run: as §1
# [30] = biological target: Neu5Ac9Ac(a2-3)Gal(b1-4)GlcNAc
# How it was run: as §1
# [31] = biological target: Neu5Ac9Ac(a2-6)Gal(b1-4)GlcNAc
# How it was run: as §1
# [32] = biological target: Neu5Gc(a2-3)Gal(b1-3)GlcNAc
# How it was run: as §1
# [33] = biological target: Neu5Gc(a2-3)Gal(b1-3)[Fuc(a1-4)]GlcNAc
# How it was run: as §1
# Neu5Gc(a2-3)Gal(b1-4)Glc = biological target: Neu5Gc(a2-3)Gal(b1-4)Glc
# How it was run: as §1
# [34] = biological target: Neu5Gc(a2-3)Gal(b1-4)GlcNAc
# How it was run: as §1
# [35] = biological target: Neu5Gc(a2-3)Gal(b1-4)GlcNAc(b1-3)Gal(b1-4)GlcNAc(b1-2)Man(a1-3)[Neu5Gc(a2-3)Gal(b1-4)GlcNAc(b1-3)Gal(b1-4)GlcNAc(b1-2)Man(a1-6)]Man(b1-4)GlcNAc(b1-4)GlcNAc
# How it was run: as §1
# [36] = biological target: Neu5Gc(a2-3)Gal(b1-4)[Fuc(a1-3)]GlcNAc
# How it was run: as §1
# [37] = biological target: Neu5Gc(a2-6)Gal(b1-4)GlcNAc
# How it was run: as §1
# Neu5Gc(a2-6)GalNAc = biological target: Neu5Gc(a2-6)GalNAc
# How it was run: as §1
# [38] = biological target: Neu5Gc(a2-8)Neu5Ac(a2-3)Gal(b1-4)GlcNAc
# How it was run: as §1
# [39] = biological target: Neu5Gc(a2-8)Neu5Gc(a2-3)Gal(b1-4)GlcNAc
# How it was run: as §1
# [40] = biological target: Neu5Gc(a2-8)Neu5Gc(a2-3)Gal(b1-4)GlcNAc(b1-3)Gal(b1-4)GlcNAc
# How it was run: as §1
# [41] = biological target: Neu5Gc(a2-8)Neu5Gc(a2-6)Gal(b1-4)GlcNAc
# How it was run: as §1
# [42] = biological target: Neu5Gc(b2-6)Gal(b1-4)GlcNAc
# How it was run: as §1
binder,measurement,setting,value
B1,glycan array binding signal (z-score),[1],0.003
same,glycan array binding signal (z-score),[2],-0.961
same,glycan array binding signal (z-score),[3],-0.129
same,glycan array binding signal (z-score),[4],-0.241
same,glycan array binding signal (z-score),[5],-0.24
same,glycan array binding signal (z-score),[6],0.688
same,glycan array binding signal (z-score),[7],-0.019
same,glycan array binding signal (z-score),[8],-0.207
same,glycan array binding signal (z-score),[9],-0.283
same,glycan array binding signal (z-score),[10],-0.208
same,glycan array binding signal (z-score),[11],-0.283
same,glycan array binding signal (z-score),Neu5Ac(a2-6)GalNAc,0.404
same,glycan array binding signal (z-score),[12],0.33
same,glycan array binding signal (z-score),[13],1.1
same,glycan array binding signal (z-score),[14],-0.274
same,glycan array binding signal (z-score),[15],-0.285
same,glycan array binding signal (z-score),Neu5Ac(a2-8)Neu5Ac,-0.282
same,glycan array binding signal (z-score),[16],-0.267
same,glycan array binding signal (z-score),[17],-0.254
same,glycan array binding signal (z-score),[18],-0.277
same,glycan array binding signal (z-score),[19],-0.282
same,glycan array binding signal (z-score),[20],0.469
same,glycan array binding signal (z-score),[21],2.27
same,glycan array binding signal (z-score),[22],-0.197
same,glycan array binding signal (z-score),[23],-0.278
same,glycan array binding signal (z-score),[24],-0.261
same,glycan array binding signal (z-score),[25],2.07
same,glycan array binding signal (z-score),[26],1.25
same,glycan array binding signal (z-score),[27],-0.278
same,glycan array binding signal (z-score),[28],-0.271
same,glycan array binding signal (z-score),Neu5Ac(b2-6)GalNAc,0.085
same,glycan array binding signal (z-score),[29],-0.281
same,glycan array binding signal (z-score),[30],-0.288
same,glycan array binding signal (z-score),[31],-0.276
same,glycan array binding signal (z-score),[32],-0.279
same,glycan array binding signal (z-score),[33],-0.276
same,glycan array binding signal (z-score),Neu5Gc(a2-3)Gal(b1-4)Glc,-0.274
same,glycan array binding signal (z-score),[34],-0.276
same,glycan array binding signal (z-score),[35],-0.262
same,glycan array binding signal (z-score),[36],0.386
same,glycan array binding signal (z-score),[37],-0.288
same,glycan array binding signal (z-score),Neu5Gc(a2-6)GalNAc,0.449
same,glycan array binding signal (z-score),[38],-0.292
same,glycan array binding signal (z-score),[39],-0.274
same,glycan array binding signal (z-score),[40],-0.28
same,glycan array binding signal (z-score),[41],-0.279
same,glycan array binding signal (z-score),[42],-0.278
